# The other results are listed elsewhere or left out.
# B1: B725 (Bifidobacterium sp) (protein)
# chain: MNNTTRAVIATAAIGALLIPLAGCGNTTTSSGKTELTVWSWDASIDRAAKSFMKANPDITVKVSNVGSTEETYTALNNAAQAGSGLPDVTLIEYLAIPQFVHSDTLMDLSKVYNTAKLKDTFTPGTWNSVNINGGLYAMPADSGPMAYFYDKDVFDKAGISEPPTTWDEFYEDAKKIRATGSYITSDSGDAGLFNAMMWAMGGHAYKLNDDKLTINIAKDKGAQRFMDLWQKMRDEDLIDVHTKTWTDDWMKSLGDGSIASLISGAWMANNLLQGVPQATGKFRVALLPTIDGTPINGEYGGSGLAITKKIPDGKLDAAKKFVEYVTTNDEGIDARVSNGSFPATTKTLNQKDFLAKTTLRNTDGSDNEFFGGQKYNEIFSQAAKDVTGKWEFLPFEPYARSVYNDNMGSFFAGKTSFRTAADNWQKALKDYAKDQGFTVQ
# Key:
# Test in all cases: glycan array binding signal (z-score within array); higher = stronger binding
# Conditions in all cases: glycan notation: IUPAC condensed, linker removed
# [1] = molecular target: GalNAc(b1-4)GlcNAc(b1-2)Man
# Method in brief: (§1)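 The binding signal is a Z-score computed within each array. Data were drawn from 3228 arrays in the Consortium for Functional Glycomics database, restricted to those with a known protein sequence. Scores were averaged over arrays of the same protein sequence at different concentrations or buffers, and over linkers, and negative values can be taken as non-binding.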
# [2] = molecular target: GalNAc(b1-4)GlcNAc(b1-2)Man(a1-3)[GalNAc(b1-4)GlcNAc(b1-2)Man(a1-6)]Man(b1-4)GlcNAc(b1-4)GlcNAc
# Method in brief: as §1
# [3] = molecular target: GalNAc(b1-4)GlcNAc(b1-3)GalNAc(b1-4)GlcNAc
# Method in brief: as §1
# GalNAc(b1-4)GlcNAc6S = molecular target: GalNAc(b1-4)GlcNAc6S
# Method in brief: as §1
# GalNAc(b1-6)GalNAc = molecular target: GalNAc(b1-6)GalNAc
# Method in brief: as §1
# GalNAc3S(b1-4)GlcNAc = molecular target: GalNAc3S(b1-4)GlcNAc
# Method in brief: as §1
# GalNAc3S(b1-4)GlcNAc3S = molecular target: GalNAc3S(b1-4)GlcNAc3S
# Method in brief: as §1
# [4] = molecular target: GalNAc3S(b1-4)[Fuc(a1-3)]GlcNAc
# Method in brief: as §1
# GalNAc4S6S(b1-4)GlcNAc = molecular target: GalNAc4S6S(b1-4)GlcNAc
# Method in brief: as §1
# GalNAc6S(b1-4)GlcNAc = molecular target: GalNAc6S(b1-4)GlcNAc
# Method in brief: as §1
# Glc(a1-4)Glc = molecular target: Glc(a1-4)Glc
# Method in brief: as §1
# [5] = molecular target: Glc(a1-4)Glc(a1-4)Glc(a1-4)Glc
# Method in brief: as §1
# Glc(a1-6)Glc(a1-6)Glc = molecular target: Glc(a1-6)Glc(a1-6)Glc
# Method in brief: as §1
# [6] = molecular target: Glc(a1-6)Glc(a1-6)Glc(a1-6)Glc
# Method in brief: as §1
# Glc(b1-4)Glc = molecular target: Glc(b1-4)Glc
# Method in brief: as §1
# Glc(b1-6)Glc = molecular target: Glc(b1-6)Glc
# Method in brief: as §1
# GlcA(b1-3)Gal = molecular target: GlcA(b1-3)Gal
# Method in brief: as §1
# GlcA(b1-3)GlcNAc = molecular target: GlcA(b1-3)GlcNAc
# Method in brief: as §1
# GlcA(b1-6)Gal = molecular target: GlcA(b1-6)Gal
# Method in brief: as §1
# [7] = molecular target: GlcA3S(b1-3)Gal(b1-4)GlcNAc(b1-2)Man
# Method in brief: as §1
# [8] = molecular target: GlcA3S(b1-3)Gal(b1-4)GlcNAc(b1-3)Gal(b1-4)Glc
# Method in brief: as §1
# [9] = molecular target: GlcNAc(a1-3)Gal(b1-4)GlcNAc
# Method in brief: as §1
# [10] = molecular target: GlcNAc(a1-4)Gal(b1-3)GlcNAc
# Method in brief: as §1
# [11] = molecular target: GlcNAc(a1-4)Gal(b1-4)GalNAc
# Method in brief: as §1
# [12] = molecular target: GlcNAc(a1-4)Gal(b1-4)GlcNAc
# Method in brief: as §1
# [13] = molecular target: GlcNAc(a1-4)Gal(b1-4)GlcNAc(b1-3)Gal(b1-4)Glc
# Method in brief: as §1
# [14] = molecular target: GlcNAc(a1-4)Gal(b1-4)GlcNAc(b1-3)Gal(b1-4)GlcNAc
# Method in brief: as §1
# [15] = molecular target: GlcNAc(a1-4)Gal(b1-4)GlcNAc(b1-3)Gal(b1-4)GlcNAc(b1-3)Gal(b1-4)GlcNAc
# Method in brief: as §1
# [16] = molecular target: GlcNAc(a1-4)Gal(b1-4)GlcNAc(b1-3)Gal(b1-4)[Fuc(a1-3)]GlcNAc(b1-3)Gal(b1-4)[Fuc(a1-3)]GlcNAc
# Method in brief: as §1
# [17] = molecular target: GlcNAc(a1-6)Gal(b1-4)GlcNAc
# Method in brief: as §1
# [18] = molecular target: GlcNAc(b1-2)Gal(b1-3)GalNAc
# Method in brief: as §1
# [19] = molecular target: GlcNAc(b1-2)Man(a1-3)[GlcNAc(b1-2)Man(a1-6)]Man(b1-4)GlcNAc(b1-4)GlcNAc
# Method in brief: as §1
# [20] = molecular target: GlcNAc(b1-2)Man(a1-3)[GlcNAc(b1-2)Man(a1-6)]Man(b1-4)GlcNAc(b1-4)[Fuc(a1-6)]GlcNAc
# Method in brief: as §1
# [21] = molecular target: GlcNAc(b1-2)Man(a1-3)[GlcNAc(b1-4)][GlcNAc(b1-2)Man(a1-6)]Man(b1-4)GlcNAc(b1-4)GlcNAc
# Method in brief: as §1
# [22] = molecular target: GlcNAc(b1-2)Man(a1-3)[GlcNAc(b1-4)][GlcNAc(b1-2)Man(a1-6)]Man(b1-4)GlcNAc(b1-4)[Fuc(a1-6)]GlcNAc
# Method in brief: as §1
# [23] = molecular target: GlcNAc(b1-2)[GlcNAc(b1-4)]Man(a1-3)[GlcNAc(b1-2)Man(a1-6)]Man(b1-4)GlcNAc(b1-4)GlcNAc
# Method in brief: as §1
# [24] = molecular target: GlcNAc(b1-2)[GlcNAc(b1-4)]Man(a1-3)[GlcNAc(b1-4)][GlcNAc(b1-2)Man(a1-6)]Man(b1-4)GlcNAc(b1-4)GlcNAc
# Method in brief: as §1
binder,measurement,setting,value
B1,glycan array binding signal (z-score),[1],-0.236
same,glycan array binding signal (z-score),[2],-0.05
same,glycan array binding signal (z-score),[3],-0.211
same,glycan array binding signal (z-score),GalNAc(b1-4)GlcNAc6S,-0.217
same,glycan array binding signal (z-score),GalNAc(b1-6)GalNAc,-0.233
same,glycan array binding signal (z-score),GalNAc3S(b1-4)GlcNAc,-0.222
same,glycan array binding signal (z-score),GalNAc3S(b1-4)GlcNAc3S,-0.219
same,glycan array binding signal (z-score),[4],-0.229
same,glycan array binding signal (z-score),GalNAc4S6S(b1-4)GlcNAc,-0.219
same,glycan array binding signal (z-score),GalNAc6S(b1-4)GlcNAc,-0.224
same,glycan array binding signal (z-score),Glc(a1-4)Glc,-0.211
same,glycan array binding signal (z-score),[5],-0.214
same,glycan array binding signal (z-score),Glc(a1-6)Glc(a1-6)Glc,-0.218
same,glycan array binding signal (z-score),[6],-0.205
same,glycan array binding signal (z-score),Glc(b1-4)Glc,-0.191
same,glycan array binding signal (z-score),Glc(b1-6)Glc,-0.219
same,glycan array binding signal (z-score),GlcA(b1-3)Gal,-0.212
same,glycan array binding signal (z-score),GlcA(b1-3)GlcNAc,-0.228
same,glycan array binding signal (z-score),GlcA(b1-6)Gal,-0.219
same,glycan array binding signal (z-score),[7],-0.223
same,glycan array binding signal (z-score),[8],-0.216
same,glycan array binding signal (z-score),[9],-0.234
same,glycan array binding signal (z-score),[10],-0.213
same,glycan array binding signal (z-score),[11],-0.225
same,glycan array binding signal (z-score),[12],-0.209
same,glycan array binding signal (z-score),[13],-0.211
same,glycan array binding signal (z-score),[14],-0.217
same,glycan array binding signal (z-score),[15],-0.201
same,glycan array binding signal (z-score),[16],-0.174
same,glycan array binding signal (z-score),[17],-0.215
same,glycan array binding signal (z-score),[18],-0.223
same,glycan array binding signal (z-score),[19],-0.223
same,glycan array binding signal (z-score),[20],-0.224
same,glycan array binding signal (z-score),[21],-0.221
same,glycan array binding signal (z-score),[22],-0.23
same,glycan array binding signal (z-score),[23],-0.201
same,glycan array binding signal (z-score),[24],-0.219
